Measurements as given in patent publication US3954730A, “6-(Substituted-cycloalkylcarboxamide) penicillanic acids” (Bayer Aktiengesellschaft, priority 1973, dated 1976).
Structures can show the parent of a compound that is named as a salt.

Tests used:
[1] = tested on: E.coli C 165; test: Animal experiment with white mice infected intraperitoneally: ED50 after 24 hours; conditions: subcutaneous, 1 × administration 30 minutes after infection
Method: (§1) The white, mice of strain CF1 were infected intraperitoneally with the particular species of bacteria indicated.
(§2) Animal experiment with white mice:
(§3) Determination of the ED50 after 24 hours.
(§4) Treatment: l administration 30 minutes after infection
(§5) The ED50 is the dose at which 50% of the infected animals still survive after 24 hours.

[2] = tested on: Staphylococcus aureus 133; test: as above
Method: as §1, §2, §3, §4, §5

CC1(C)S[C@@H]2[C@H](NC(=O)C3(C)CC3(Cl)Cl)C(=O)N2[C@H]1C(=O)O (stereo partly drawn) [Example 1, sodium salt of 6-(2,2-dichloro-1-methyl-cyclopropylcarboxamido)-penicillanic acid]
ED50 (dose at which 50% of the infected animals still survive after 24 hours) [1]: 200,000 units per kg
ED50 (dose at which 50% of the infected animals still survive after 24 hours) ([2]; oral, 1 administration 30 minutes after infection): 10,000 units per kg
ED50 (dose at which 50% of the infected animals still survive after 24 hours) ([2]; subcutaneous, 1 × administration 30 minutes after infection): 5,000 units per kg
